# Measured values published in the supplement of paper PMC4166925.
# ± gives the standard deviation of the averaged measurements. The full ranking holds about 33,000 sequences; the median of “E-score (dimensionless, -0.5 to 0.5)” is about -0.049, and the highest 2% start at about 0.37. The list shows a part of the results.
# System: T1, PmTbr T-box DNA-binding domain (GST fusion)
# T1 sequence: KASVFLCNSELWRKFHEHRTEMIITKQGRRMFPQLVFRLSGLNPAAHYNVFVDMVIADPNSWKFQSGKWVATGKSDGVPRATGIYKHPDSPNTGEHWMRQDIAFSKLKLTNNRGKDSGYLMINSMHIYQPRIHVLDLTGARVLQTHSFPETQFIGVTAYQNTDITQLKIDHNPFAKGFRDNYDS
# Assay: PBM E-score of 8-mer (E-score (dimensionless, -0.5 to 0.5)); Tbr is Tbrain of the sea star Patiria miniata (Pm) or the sea urchin Strongylocentrotus purpuratus (Sp); higher = stronger binding preference; most listed sequences are background and not binding sites
# Settings: the construct has about 5 more residues each side
# Procedure, shortened: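 Universal Agilent oligonucleotide arrays, made double-stranded by primer extension, were incubated with 200 nM GST-fused Tbr T-box DNA-binding domain in PBS (pH 7.5). The protein was expressed in BL21 E. coli at 20 °C and purified by glutathione affinity chromatography. After scanning and quantification, the Universal PBM Analysis Suite assigned an enrichment E-score to each ungapped 8-mer, averaged over duplicate arrays.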
row,Sequence,PBM E-score of 8-mer
1,AGACATAG,-0.0931 ± 0.0015
2,TCAATGAA,-0.145 ± 0.076
3,AGAACACA,0.154 ± 0.0065
4,AGGTTAGC,0.0849 ± 0.028
5,CTATGTGA,0.209 ± 0.023
6,CGAACATA,-0.068 ± 0.025
7,GGATCCCA,-0.0577 ± 0.036
8,GCACCTAC,0.382 ± 0.0042
9,TAGACCAA,-0.0333 ± 0.022
10,CAGTCAAG,-0.0211 ± 0.039
11,AGGAGTAC,-0.05 ± 0.089
12,AATTTTAT,-0.0919 ± 0.057
13,CACCATTC,0.312 ± 0.025
14,ACCAATGA,-0.0935 ± 0.0071
15,AGTCCGAA,-0.0518 ± 0.044
16,ATAGTTGG,-0.0556 ± 0.062
17,AATAAGAG,-0.0489 ± 0.003
18,CCCAAGGG,-0.052 ± 0.028
19,ACCGGGAC,-0.196 ± 0.094
20,GTGACGAA,0.371 ± 0.014
21,TGCGTAAA,0.0147 ± 0.024
22,TATGCTCA,-0.0546 ± 0.004
23,ATGTCCAA,-0.265 ± 0.0044
24,GCTGTGAA,0.3817 ± 0.0019
25,CCTTGCAA,0.0478 ± 0.095

row,Sequence,PBM E-score of 8-mer
1,ACAGGTTA,0.252 ± 0.022
2,CCCAACCA,-0.23 ± 0.0029
3,ATTCAAAC,-0.113 ± 0.054
4,ACGGGAGA,-0.194 ± 0.0057
5,AGTAGTCG,-0.0926 ± 0.09
6,GTTCACCA,-0.0249 ± 0.026
7,AATTCATC,-0.0277 ± 0.0079
8,AGCCCCAG,-0.138 ± 0.057
9,AATGAGCA,-0.11 ± 0.0056
10,GAAAACCC,-0.0472 ± 0.071
11,GCGAAGAC,0.214 ± 0.063
12,CGTTCTTC,-0.0942 ± 0.024
13,GATAATAA,0.182 ± 0.022
14,CGGAAGTA,-0.162 ± 0.0057
15,CGGGCATC,-0.288 ± 0.031
16,GATATTGC,0.0859 ± 0.048
17,CCCCACCG,-0.0249 ± 0.11
18,GCCGAAGC,-0.122 ± 0.056
19,AGGTGCCG,0.439 ± 0.0092
20,CGCTAAAC,0.278 ± 0.0067
21,CAGTAAGC,-0.0795 ± 0.03
22,ATGCCCAG,-0.0727 ± 0.0088
23,CCGTAGAG,-0.112 ± 0.11
24,CCTTATTA,-0.0364 ± 0.039
25,AAGGCATT,-0.0696 ± 0.038

row,Sequence,PBM E-score of 8-mer
1,CCCCAGAG,-0.096 ± 0.018
2,ACCCACTC,-0.0406 ± 0.049
3,AATTGACT,-0.061 ± 0.02
4,AAAGGTGT,0.478 ± 0.0057
5,CAGGACTC,-0.282 ± 0.029
6,CACGTACC,0.152 ± 0.081
7,ATCGGCCA,-0.138 ± 0.015
8,ACCAGCCA,-0.0411 ± 0.071
9,GACGACGC,0.0696 ± 0.0067
10,CGTGTCAC,0.3865 ± 0.0037
11,ATACGTCA,-0.103 ± 0.071
12,AGCGGTCG,-0.0595 ± 0.095
13,ACCTCCCA,0.206 ± 0.053
14,AAACTTGC,0.122 ± 0.029
15,ATGTTCTA,-0.121 ± 0.063
16,GACTGACC,-0.232 ± 0.052
17,ACCCACAA,-0.026 ± 0.12
18,AGAGCAGC,-0.151 ± 0.09
19,CAACTCGG,-0.003 ± 0.026
20,TCCATTCA,-0.122 ± 0.007
21,GGCTGCTA,0.0299 ± 0.01
22,GACCAATA,-0.175 ± 0.013
23,AGTGCCAT,0.211 ± 0.035
24,GCACTAGC,0.0942 ± 0.018
25,CCGCCCTC,-0.058 ± 0.046

row,Sequence,PBM E-score of 8-mer
1,CCGTCGGA,-0.209 ± 0.013
2,CAAGTTTC,-0.00235 ± 0.0011
3,ACCATGCT,-0.00328 ± 0.0055
4,CTAGCTGC,0.0678 ± 0.053
5,CGGTTTAC,-0.132 ± 0.011
6,TTTAGAAA,-0.102 ± 0.013
7,CGATCTCC,-0.0913 ± 0.068
8,AGTCCTGA,-0.212 ± 0.0058
9,GCTCTATA,-0.25 ± 0.048
10,AATGGACT,-0.16 ± 0.0072
11,CTGACTGA,-0.168 ± 0.029
12,AAAGTGGG,0.089 ± 0.01
13,AATTATAT,-0.201 ± 0.082
14,CGCGCGAG,0.27 ± 0.023
15,AGAACAAA,-0.153 ± 0.13
16,CAGCTAGC,0.149 ± 0.028
17,CACGAGAG,-0.0591 ± 0.03
18,AATGGGAT,-0.184 ± 0.0093
19,CTAATCTC,0.00403 ± 0.021
20,TCAGCTAA,0.0376 ± 0.042
21,GACCTGAA,0.0244 ± 0.077
22,CGCATGTC,0.0309 ± 0.08
23,GATACATA,-0.123 ± 0.052
24,CGGAACCG,-0.17 ± 0.037
25,CGTAACCA,-0.155 ± 0.007

row,Sequence,PBM E-score of 8-mer
1,CCTTCCCC,-0.103 ± 0.15
2,ACACCAGA,0.316 ± 0.017
3,AAACGTTA,-0.111 ± 0.044
4,CCAAGGGC,-0.00209 ± 0.0086
5,AAAATCCG,0.047 ± 0.0082
6,ATACTATA,0.0121 ± 0.026
7,AAAATCGA,0.0546 ± 0.01
8,GCGTCTGA,0.00628 ± 0.061
9,CTGAGGCA,-0.0583 ± 0.05
10,CGTAAAAG,-0.0534 ± 0.03
11,CGATGCGC,0.0129 ± 0.01
12,AACGATAT,-0.0689 ± 0.052
13,CAACTCAA,-0.019 ± 0.02
14,TAGTCAAA,-0.2 ± 0.035
15,CATTGAGC,-0.111 ± 0.022
16,CGATCTTA,-0.0203 ± 0.061
17,CGAAGAGC,-0.116 ± 0.044
18,ACGGTCCT,-0.1466 ± 0.00044
19,TTACGGAA,-0.157 ± 0.052
20,CCGCGTAA,-0.124 ± 0.016
21,ATGCGCTA,0.0835 ± 0.063
22,CTTAAGAC,-0.218 ± 0.055
23,AGTGCCGG,0.189 ± 0.029
24,AACCGTGT,0.207 ± 0.014
25,ACGAGACG,-0.0653 ± 0.0085

row,Sequence,PBM E-score of 8-mer
1,GTTTGCCA,0.0628 ± 0.025
2,AAACCCAT,-0.0287 ± 0.018
3,ATGATGGG,-0.0981 ± 0.046
4,GCGTCAAC,0.318 ± 0.012
5,CACTAAGC,0.144 ± 0.036
6,AGCTTGAT,-0.0282 ± 0.019
7,ATAGCAAG,0.0935 ± 0.033
8,CACGCAAG,0.192 ± 0.032
9,ACTGCACC,-0.0766 ± 0.0028
10,GTTAGTCA,0.143 ± 0.043
11,CGGGGACA,-0.0573 ± 0.041
12,CGAGGAGA,-0.139 ± 0.016
13,ACAGCGCG,0.258 ± 0.0087
14,ATCTGTGC,-0.142 ± 0.022
15,AGGAAGTC,-0.0733 ± 0.043
16,AAGGCAAG,0.0215 ± 0.051
17,AGTAATGA,-0.0763 ± 0.031
18,CGCGCCTC,0.3603 ± 0.00025
19,GCCCGACC,-0.105 ± 0.095
20,AGTAGATA,-0.329 ± 0.051
21,AAGTCAGT,-0.245 ± 0.03
22,AGTTGCCC,-0.177 ± 0.09
23,GGGAAAAA,-0.042 ± 0.0054
24,AGCCCACC,-0.301 ± 0.011
25,ACATTGAT,0.12 ± 0.068

row,Sequence,PBM E-score of 8-mer
1,GAGGGCGA,0.00116 ± 0.053
2,CTGATTCC,-0.251 ± 0.0026
3,CAGAGGTC,-0.0549 ± 0.0023
4,CACGCCAC,0.222 ± 0.04
5,AAGCACGA,-0.11 ± 0.07
6,AAAACAAA,-0.134 ± 0.11
7,CGTCACGC,0.296 ± 0.0071
8,CCCGATCC,-0.197 ± 0.01
9,GCATTTAC,0.0608 ± 0.032
10,AATAGTTG,0.0382 ± 0.051
11,ACACCAAA,0.319 ± 0.013
12,GCTGGAAC,-0.0508 ± 0.046
13,GCACGTGC,0.2695 ± 0.0011
14,CGGATTCC,-0.04442 ± 0.00012
15,AGGTAACC,-0.159 ± 0.038
16,ATCTTTGA,-0.153 ± 0.033
17,GCCGACAA,0.116 ± 0.04
18,AAGCCCGT,-0.241 ± 0.034
19,CTTCAGCA,0.044 ± 0.011
20,AAGACTAG,-0.115 ± 0.024
21,GTCTTGAA,-0.104 ± 0.061
22,TAAAAACA,0.0432 ± 0.083
